The antibiotic and cytotoxicity screens of Wong et al. (2023)
Some of the results follow.

What was measured:
HSkMC = human skeletal muscle cells; assay: cytotoxicity call (relative viability < 0.9); conditions: 10 µM
HepG2 = assay: cytotoxicity call (relative viability < 0.9); conditions: 10 µM
S. aureus RN4220 = assay: growth inhibition call (relative growth <= 0.2); conditions: 50 µM

C[C@H]1CN([C@@H](C)CO)C(=O)c2cccc(NS(C)(=O)=O)c2O[C@H]1CN(C)S(=O)(=O)c1cn(C)cn1
inactive: cytotoxicity call (HSkMC) | cytotoxicity call (HepG2) | growth inhibition call (S. aureus RN4220)

CCN1C(=O)C(N=O)N(CC)C1=S (stereo not given)
inactive: cytotoxicity call (HSkMC) | cytotoxicity call (HepG2) | growth inhibition call (S. aureus RN4220)

C[C@H]1CN([C@@H](C)CO)C(=O)c2cc(C#CC3(O)CCCC3)cnc2O[C@H]1CN(C)C(=O)Nc1ccc2c(c1)OCO2
inactive: cytotoxicity call (HSkMC) | cytotoxicity call (HepG2) | growth inhibition call (S. aureus RN4220)

Cc1noc(C)c1S(=O)(=O)Nc1ccc2c(c1)C(=O)N([C@H](C)CO)C[C@H](C)[C@@H](CN(C)Cc1ccccc1)O2
inactive: cytotoxicity call (HSkMC) | cytotoxicity call (HepG2) | growth inhibition call (S. aureus RN4220)

O=C(Oc1ccc(Cl)cc1)c1sc2ccccc2c1Cl
inactive: cytotoxicity call (HSkMC) | cytotoxicity call (HepG2) | growth inhibition call (S. aureus RN4220)

Cc1noc(C)c1NC(=O)N(C)C[C@H]1Oc2ccc(NS(=O)(=O)c3ccccc3)cc2C(=O)N([C@H](C)CO)C[C@@H]1C
inactive: cytotoxicity call (HSkMC) | cytotoxicity call (HepG2) | growth inhibition call (S. aureus RN4220)

Cc1cc2c(cc1C)N=C(C(F)(F)F)CC(c1cccs1)=N2
inactive: cytotoxicity call (HSkMC) | cytotoxicity call (HepG2) | growth inhibition call (S. aureus RN4220)

C[C@H]1CCCCO[C@@H](CN(C)Cc2ccncc2)[C@@H](C)CN([C@@H](C)CO)C(=O)c2cc(NS(=O)(=O)c3ccc(Cl)cc3)ccc2O1
inactive: cytotoxicity call (HSkMC) | cytotoxicity call (HepG2) | growth inhibition call (S. aureus RN4220)

C[C@@H]1CN([C@H](C)CO)S(=O)(=O)c2ccc(C#CCN(C)C)cc2O[C@@H]1CN(C)Cc1ccccn1
inactive: cytotoxicity call (HSkMC) | cytotoxicity call (HepG2) | growth inhibition call (S. aureus RN4220)

C[C@@H]1CCCCO[C@@H](CN(C)Cc2ccncc2)[C@@H](C)CN([C@@H](C)CO)C(=O)c2cc(NC(=O)C3CCCCC3)ccc2O1
inactive: cytotoxicity call (HSkMC) | cytotoxicity call (HepG2) | growth inhibition call (S. aureus RN4220)
